Common to all, as to experiment: Viability of human cancer cell lines after 72 h of drug (GDSC screen)
Compound in one experiment: N#CC(c1ccnc(NCCc2cccnc2)n1)c1nc2ccccc2s1 [AS601245]
Particulars: top dose 8 µM; top dose inferred. Here is the method:
(§1)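 Human cancer cell lines in 384-well plates, medium with 10% serum, drug for 72 h over a 256-fold dose range (nine 2-fold or five 4-fold steps up to the top dose). Adherent lines were fixed and stained with the nucleic acid dye Syto60, suspension lines read with resazurin; signal relative to control wells, capped at 0 and 100%. One two-parameter sigmoid per drug and line, fitted in a mixed model over all curves with the slope shared within a line.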

Compound in the next experiment: Cn1cnc2c(F)c(Nc3ccc(Br)cc3Cl)c(C(=O)NOCCO)cc21 [AZD6244]
The following applies: top dose 4 µM; screen: GDSC drug entry 1498; top dose inferred. As for the experimental part:
as §1

Compound in the next experiment: Cc1ccc(NC(=O)c2cccc(C(C)(C)C#N)c2)cc1Nc1ccc2ncn(C)c(=O)c2c1 [AZ628]
Particulars: top dose 4 µM; top dose inferred. As for the experimental part: as §1

Compound in another experiment: Nc1ccc(C(=O)Nc2cccc(-c3nc(N4CCOCC4)c4oc5ncccc5c4n3)c2)cn1 [YM201636]
Particulars: top dose 5.12 µM; top dose inferred. Here is the method:
as §1

Compound in a further experiment: NC(=O)C1CCCc2c1[nH]c1ccc(Cl)cc21 [EX-527]
The following applies: top dose 20 µM. As for the experimental part: as §1

By IC50 is meant the dose at which the fit gives 50% viability; a fit beyond the top or the lowest dose is shown as a bound at that dose. AUC is the area under the same curve over the 256-fold range up to the top dose, as a fraction; the more sensitive the line, the further below 1. For part of these data: Any top dose called inferred comes from the curve model; the source does not state it. For part of these data: Where an entry number is given, a second screen of the drug exists; the two often differ.

For the cell line HT-144 (melanoma, adherent), the AUC with AS601245 was 0.797; in the experiment with AZD6244 it was 0.482; with AZ628 it was 0.161; with YM201636 it was 0.916; in the experiment with EX-527, 0.98. Moreover, the IC50 is 4.27 µM with AS601245; 0.222 µM in the experiment with AZD6244; 0.0196 µM in the experiment with AZ628; > 5.12 µM with YM201636; > 20 µM in the experiment with EX-527.

For HUTU-80 (digestive system, adherent), the AUC in the experiment with AS601245 worked out at 0.781; with AZD6244, 0.986; with AZ628, 0.731; with YM201636, 0.889; with EX-527, 0.981. In addition, the IC50 with AS601245 was 2.74 µM; with AZD6244, > 4 µM; in the experiment with YM201636 it was 4.09 µM; in the experiment with EX-527, > 20 µM.

Turning to Hs-445 (Hodgkin lymphoma, suspension), the AUC in the experiment with AS601245 was 0.872; with AZD6244 it was 0.943; in the experiment with AZ628, 0.944; in the experiment with YM201636, 0.929; with EX-527 it was 0.988. In addition, the IC50 in the experiment with AS601245 was 6.63 µM; with AZD6244, > 4 µM; with AZ628 it was > 4 µM; with YM201636, > 5.12 µM; in the experiment with EX-527 it was > 20 µM.

With IMR-5 (neuroblastoma, adherent), the AUC with AS601245 came out at 0.911; in the experiment with AZD6244 it was 0.982; with AZ628, 0.986; with YM201636, 0.847; in the experiment with EX-527, 0.99. The IC50 in the experiment with AS601245 is > 8 µM; with AZD6244 it was > 4 µM; with AZ628, > 4 µM; with YM201636, 2.91 µM; with EX-527 it was > 20 µM.

Turning to IST-MEL1 (melanoma, adherent), the AUC in the experiment with AS601245 came to 0.81; with AZD6244, 0.85; with AZ628, 0.475; in the experiment with YM201636 it was 0.865; with EX-527, 0.982. Further, the IC50 was 5.22 µM with AS601245; 3.96 µM with AZD6244; 0.21 µM with AZ628; > 5.12 µM with YM201636; > 20 µM with EX-527.

Consider IST-MES1 (mesothelioma, adherent), for which the AUC with AS601245 amounted to 0.856; with AZD6244 it was 0.982; in the experiment with AZ628, 0.955; with YM201636 it was 0.808; in the experiment with EX-527 it was 0.983. Further, the IC50 with AS601245 was 6.52 µM; with AZD6244, > 4 µM; in the experiment with AZ628, > 4 µM; with YM201636, 2.68 µM; with EX-527 it was > 20 µM.

For the cell line “IST-SL1 (small cell lung carcinoma, semi-adherent)”, the AUC turned out to be 0.933 with AS601245; 0.955 in the experiment with AZD6244; 0.972 in the experiment with AZ628; 0.787 with YM201636; 0.986 with EX-527. For the same cell line, the IC50 was > 8 µM with AS601245; > 4 µM with AZD6244; > 4 µM with AZ628; 2.3 µM with YM201636; > 20 µM in the experiment with EX-527.

Turning to JAR (urogenital system, adherent), the AUC is 0.988 in the experiment with AS601245; 0.984 with AZD6244; 0.983 with AZ628; 0.954 in the experiment with YM201636; 0.983 in the experiment with EX-527. The IC50 with AS601245 is > 8 µM; with AZD6244, > 4 µM; with AZ628, > 4 µM; with YM201636, > 5.12 µM; in the experiment with EX-527, > 20 µM.

As to “JJN-3 (haematopoietic neoplasm, suspension)”, the AUC in the experiment with AS601245 amounted to 0.866; with AZD6244 it was 0.962; with AZ628, 0.887; with YM201636, 0.909; with EX-527 it was 0.974. In addition, the IC50 with AS601245 is 5.11 µM; with AZD6244 it was > 4 µM; with AZ628, 3.07 µM; with YM201636 it was 4.91 µM; with EX-527, > 20 µM.

In the case of JM1 (B-cell lymphoma, suspension), the AUC with AS601245 was 0.871; with AZD6244, 0.97; in the experiment with AZ628, 0.93; in the experiment with YM201636, 0.822; in the experiment with EX-527 it was 0.989. For the same cell line, the IC50 with AS601245 was 5.76 µM; with AZD6244, > 4 µM; with AZ628, > 4 µM; with YM201636 it was 2.46 µM; in the experiment with EX-527 it was > 20 µM.

As for JSC-1 (B-cell lymphoma, suspension), the AUC with AS601245 was 0.874; with AZD6244 it was 0.908; with AZ628, 0.633; with YM201636, 0.766; in the experiment with EX-527, 0.979. The IC50 with AS601245 is 7.61 µM; with AZD6244 it was > 4 µM; with AZ628, 0.578 µM; with YM201636 it was 1.87 µM; with EX-527 it was > 20 µM.

In the case of “JURL-MK1 (chronic myeloid leukaemia, suspension)”, the AUC came out at 0.92 with AS601245; 0.746 with AZD6244; 0.539 in the experiment with AZ628; 0.904 with YM201636; 0.979 with EX-527. The IC50 with AS601245 is > 8 µM; in the experiment with AZD6244 it was 1.26 µM; with AZ628, 0.318 µM; with YM201636, > 5.12 µM; with EX-527, > 20 µM.

Regarding JVM-2 (lymphoid neoplasm, suspension), the AUC stood at 0.908 in the experiment with AS601245; 0.906 in the experiment with AZD6244; 0.906 in the experiment with AZ628; 0.875 with YM201636; 0.968 with EX-527. In addition, the IC50 is > 8 µM in the experiment with AS601245; > 4 µM with AZD6244; > 4 µM with AZ628; > 5.12 µM in the experiment with YM201636; > 20 µM in the experiment with EX-527.

Broadly, the IC50 is the concentration that gives 50% inhibition.

(Values after the supplement of paper PMC4967469.)
